Experimental findings from patent publication US4816447A, “Anti-viral guanine compounds” (priority 1984, dated 1989) are described below.

The target of this data set is thymidine kinase, isolated from virus-infected HeLa cells (HSV1 virus) (Human herpesvirus 1, UniProt P0DTH5). Particulars: 3 hour incubation, 37° C.
Sequence of UniProt P0DTH5 (P0DTH5 whole entry): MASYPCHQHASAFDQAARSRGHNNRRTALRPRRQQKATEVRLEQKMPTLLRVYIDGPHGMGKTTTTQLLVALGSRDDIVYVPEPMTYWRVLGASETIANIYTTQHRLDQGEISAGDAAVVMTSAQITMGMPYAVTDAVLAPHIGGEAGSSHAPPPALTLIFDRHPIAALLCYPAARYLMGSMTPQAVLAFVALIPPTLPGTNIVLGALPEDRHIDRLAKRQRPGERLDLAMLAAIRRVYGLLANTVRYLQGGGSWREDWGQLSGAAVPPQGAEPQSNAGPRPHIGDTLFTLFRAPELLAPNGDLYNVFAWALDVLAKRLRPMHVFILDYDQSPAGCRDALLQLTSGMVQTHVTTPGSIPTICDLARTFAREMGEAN

In the case of `Nc1nc(O)c2ncn(COC(CO)CO)c2n1` [Compound of Formula II, 9-(1,3-Dihydroxy-2-propoxymethyl)guanine], the “converted to the monophosphate derivative” value came to 95%.

For `Nc1nc2c(ncn2COCC(O)CO)c(=O)[nH]1` (centres unmarked) [Compound of Formula I, 9-(2,3-Dihydroxy-1-propoxymethyl)guanine], the “converted to the monophosphate derivative” value came to 90%.
